In the antibiotic and cytotoxicity screens of Wong et al. (2023):
The other results are listed elsewhere or left out.

Legend:
HSkMC = human skeletal muscle cells; experiment: cytotoxicity call (relative viability < 0.9); conditions: 10 µM
HepG2 = experiment: cytotoxicity call (relative viability < 0.9); conditions: 10 µM
S. aureus RN4220 = experiment: growth inhibition call (relative growth <= 0.2); conditions: 50 µM

C[C@H]1CN([C@@H](C)CO)C(=O)Cc2cc(NS(=O)(=O)c3ccc(F)cc3)ccc2O[C@H]1CN(C)S(=O)(=O)c1cn(C)cn1
inactive: cytotoxicity call (HSkMC) | cytotoxicity call (HepG2) | growth inhibition call (S. aureus RN4220)

C[C@@H]1CN([C@@H](C)CO)C(=O)c2cccc(NC(=O)Nc3ccc4c(c3)OCO4)c2O[C@@H]1CN(C)C(=O)Nc1cccc2ccccc12
inactive: cytotoxicity call (HSkMC) | cytotoxicity call (HepG2) | growth inhibition call (S. aureus RN4220)

CCCNC(=O)Nc1ccc2c(c1)OC[C@H](C)N(C(=O)C1CCOCC1)C[C@@H](C)[C@@H](OC)CN(C)C2=O
inactive: cytotoxicity call (HSkMC) | cytotoxicity call (HepG2) | growth inhibition call (S. aureus RN4220)

C[C@H]1CN([C@@H](C)CO)S(=O)(=O)c2ccc(C#Cc3ccccc3)cc2O[C@H]1CN(C)S(=O)(=O)c1ccccc1F
inactive: cytotoxicity call (HSkMC) | cytotoxicity call (HepG2) | growth inhibition call (S. aureus RN4220)

COc1ccc(C#Cc2ccc([C@H]3[C@@H](CO)N4CCCCN(S(=O)(=O)c5cn(C)cn5)C[C@@H]34)cc2)cc1
inactive: cytotoxicity call (HSkMC) | cytotoxicity call (HepG2) | growth inhibition call (S. aureus RN4220)

C[C@@H]1CCCCO[C@@H](CN(C)C(=O)Cc2ccccc2)[C@H](C)CN([C@@H](C)CO)C(=O)c2cc(NC(=O)C3CCCCC3)ccc2O1
inactive: cytotoxicity call (HSkMC) | cytotoxicity call (HepG2) | growth inhibition call (S. aureus RN4220)

COc1ccc(NC(=O)Nc2ccc3c(c2)C(=O)N([C@@H](C)CO)C[C@H](C)[C@@H](CN(C)C(=O)Nc2ccc(OC)cc2)OCCCC[C@H](C)O3)cc1
inactive: cytotoxicity call (HSkMC) | cytotoxicity call (HepG2) | growth inhibition call (S. aureus RN4220)

C[C@H]1CN([C@@H](C)CO)C(=O)Cc2cc(NS(C)(=O)=O)ccc2O[C@@H]1CN(C)C(=O)Nc1ccc(C(F)(F)F)cc1
inactive: cytotoxicity call (HSkMC) | cytotoxicity call (HepG2) | growth inhibition call (S. aureus RN4220)

CN(C)C1C(O)=C(C(N)=O)C(=O)C2(O)C(O)=C3C(=O)c4c(O)cccc4C(C)(O)C3CC12.Cl (configuration not stated)
inactive: cytotoxicity call (HSkMC) | cytotoxicity call (HepG2) | growth inhibition call (S. aureus RN4220)
